Measured values reported in article PMC5862564.
For part of its entries the source gives two or more results. This list holds those alone. There may be further records. The values listed for one entry seem to repeat one measurement; one of them may be the mean.

Molecular target: SKAP2 homo-dimer of HaloTag-SKAP2 and hemi-luciferase-fused SKAP2 (human) (UniProt O75563)
Experiment: pull-down + split reporter (BiFC, NanoBiT); HaloTag-fused hook captured from HEK293T lysate on HaloLink resin, 6 washes with PBS 0.1% Tween; luminescence of the co-expressed GPCA pair on the resin; ratio of cells with the HaloTag vector to cells with the pCNeo vector expressing the same protein

UniProt O75563, sequence (O75563 whole entry, chain 1 of 2, the tested form may be a part): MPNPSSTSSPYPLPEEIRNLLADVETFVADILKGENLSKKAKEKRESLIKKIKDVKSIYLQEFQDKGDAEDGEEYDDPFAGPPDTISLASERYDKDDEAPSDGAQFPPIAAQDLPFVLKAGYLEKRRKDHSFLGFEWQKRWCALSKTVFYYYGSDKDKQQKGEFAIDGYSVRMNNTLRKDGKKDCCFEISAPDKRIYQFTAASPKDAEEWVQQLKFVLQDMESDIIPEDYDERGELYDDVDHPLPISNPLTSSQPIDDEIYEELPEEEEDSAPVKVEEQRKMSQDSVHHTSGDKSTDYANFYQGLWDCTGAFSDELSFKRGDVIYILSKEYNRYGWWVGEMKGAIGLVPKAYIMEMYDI
UniProt O75563, sequence (O75563 whole entry, chain 2 of 2, the tested form may be a part): as the sequence (O75563 whole entry, chain 1 of 2, the tested form may be a part) above

## FYB fused N-terminally to Gaussia princeps luciferase fragment 1 (from UniProt O15117-3 1-839) (natural protein)
  luminescence ratio (HaloTag vector to pCNeo control): 1.33, 8.63, 1.05 [columns of one line]
